Our source for the inhibition values is PubChem BioAssay AID485344 (National Center for Advancing Translational Sciences (NCATS), 2010).

“And” between values parts separate entries of the source, which are not always exact repeats. Equal values may be shown once. Screen size: about 340,000 compounds; about 6,900 (2%) were called active. No stated cut-off is given here; in the data, active means inhibition above about 30%; inactive means below that, where a call was filed. This is a selection; strong and weak results do not stand in their true shares. The source gives no active or inactive call for entries shown without one.

Chain of UniProt P14416 (P14416 whole entry, looked up): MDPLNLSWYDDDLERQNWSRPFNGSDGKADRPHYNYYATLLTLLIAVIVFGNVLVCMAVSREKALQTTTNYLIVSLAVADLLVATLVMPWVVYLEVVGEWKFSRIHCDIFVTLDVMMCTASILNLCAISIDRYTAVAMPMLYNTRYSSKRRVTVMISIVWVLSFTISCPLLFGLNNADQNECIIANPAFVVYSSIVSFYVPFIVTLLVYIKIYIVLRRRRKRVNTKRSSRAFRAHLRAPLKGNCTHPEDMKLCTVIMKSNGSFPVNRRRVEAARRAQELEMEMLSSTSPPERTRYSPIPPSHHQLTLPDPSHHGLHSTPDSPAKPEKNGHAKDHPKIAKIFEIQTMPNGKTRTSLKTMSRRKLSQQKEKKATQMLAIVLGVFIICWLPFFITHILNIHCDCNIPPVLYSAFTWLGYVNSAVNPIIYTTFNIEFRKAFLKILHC

The test has as its target D(2) dopamine receptor (Homo sapiens) (UniProt P14416). Put plainly: HTS Assay for Allosteric Antagonists of the Human D2 Dopamine Receptor: Primary Screen for Antagonists. Further: 0% is about no effect. Particulars: HEK293 TREx D2 cells, calcium flux, dopamine EC80; at 10 µM; stronger effect = higher value. The method, boiled down:
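In this primary screen, negative modulation is detected by tracking calcium flux after an EC80 dopamine challenge in inducible HEK293 T-REx D2 cells preexposed to test compound for 180 s.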
For orientation: Calcium assays in cells follow changes in intracellular calcium, usually with a dye or a luminescent sensor.
As for `CCOc1ccccc1N(C)C(=O)c1c2c(nc3ccccc13)C(=O)N(C1CCCCC1)C2`, the inhibition was 12.8%.

Take `Cc1ccc(C)c(Cn2c3ccccc3c3cnn(CC(=O)NCCc4ccccc4)c(=O)c32)c1`: the inhibition came to 16.8%.

Turning to `Cc1ccc2c(c1)c1c3n2CCN(C(=O)c2cccc(C(F)(F)F)c2)C3CCC1` (stereo not drawn), the inhibition came to 20%.

On to `CCc1cccc(C)c1Nc1c(-c2ccsc2)nc2ncccn12`, for which the inhibition is 6.83%.

`COc1ccc(N2CCN(Cc3nnc(-c4ccc5c(c4)OCO5)o3)CC2)cc1`: the inhibition was -12.3%.

In the case of `Cc1ccc(-n2nc(C)c3nc(CCC(=O)Nc4cccc(F)c4)c(=O)n(C)c32)cc1`, the inhibition is 3.2%.

Regarding `Clc1ccc(-c2noc(-c3cccnc3NCc3ccco3)n2)cc1`, the inhibition worked out at 26.5%.

Regarding `COc1ccc(CNC(=O)C2CCCN(c3nnc(C)c4c(C)n(-c5ccc(C)cc5)nc34)C2)cc1` (stereo not drawn), the inhibition was -18.4%.

On to `CCOc1c(Cl)cc(C(=O)N(Cc2ccc(N(C)C)cc2)Cc2ccco2)cc1Cl`, for which the inhibition was 1.31%.

In the case of `COc1ccccc1CNC(=O)CCNS(=O)(=O)c1ccc2c(c1)oc(=O)n2C`, the inhibition is -3.08% and active: 67%.

Take `CNC(=O)c1ccc2c(c1)N(Cc1ccccc1Cl)C(=O)c1ccccc1S2`: the inhibition was -9.87%.

Take `O=C(Cn1c(=O)nc(-c2ccccc2F)c2cc(Cl)ccc21)NCCCc1ccccc1`: the inhibition is -11.5%.

For `Cn1c2ccccc2c2cnn(CC(=O)Nc3ccccc3F)c(=O)c21`, the inhibition came to 4.85%.

Turning to `CC(C)CCn1c(=O)c2cccnc2n(CC(=O)Nc2ccccc2F)c1=O`, the inhibition was -2.45%.

For `Cc1cc(C)cc(NC(=O)c2c(C)oc3nc(C)nc(N4CCCC4)c23)c1`, the inhibition turned out to be 4.62%.

Consider `CCc1ccc(OCC(=O)Nc2ncn[nH]2)c(Br)c1`, for which the inhibition was 19.6%.

On to `CCOc1ccc(Nc2nn(-c3ccc(OC(F)(F)F)cc3)nc2C(C)=O)cc1`, for which the inhibition is -7.04%.

As for `COc1cccc(Cn2c(-c3nonc3NC(C)=O)nc3ccccc32)c1`, the inhibition was 19%.

With `COc1cccc(-c2noc(-c3cc(C(C)C)[nH]n3)n2)c1OC`, the inhibition came out at 9.62%.

As to `CCOc1ccc(NC(=O)CCc2c(C)nc3c(-c4ccccc4)c(C)nn3c2C)cc1`, the inhibition turned out to be 13.7%.

Consider `COC(=O)c1ccc(Cn2c(SCc3ccc(F)cc3)nc3ccncc32)cc1`, for which the inhibition was 12.2%.

In the case of `O=c1ccc2cc(S(=O)(=O)Nc3ccc(OC(F)(F)F)cc3)ccc2[nH]1`, the inhibition is -12.8%.

As for `Cc1ccc(CNC(=O)CSC2=Nc3ccccc3N=C(c3ccc(F)cc3)C2)cc1`, the inhibition amounted to 0.835%.

With `Cc1c(C)n(O)c2ccc3nonc3c12`, the inhibition was active: 41.1%.

Take `CCOC(=O)N1CCN(CC(=O)Nc2ccc(Oc3ccccc3)cc2)CC1`: the inhibition is active: 43.3%.

With `COCCCN1C(=O)c2oc3ccccc3c(=O)c2C12C(=O)N(C)c1ccccc12` (stereo not drawn), the inhibition was -1.6%.

Take `COc1ccc(CC(=O)N2CCc3cc(OC)c(OC)cc3C2COc2ccc3c(C)cc(=O)oc3c2)cc1OC` (stereo not drawn): the inhibition came to 17.3%.

As for `Cc1ccc(S(=O)(=O)c2nc(-c3ccccc3F)oc2NCc2ccccc2)cc1`, the inhibition was 16.7%.

As for `Cc1nc(N2CCOCC2)c2c(C(=O)N3CCN(c4ccccc4)CC3)c(C)oc2n1`, the inhibition worked out at 3.8%.

Turning to `CCOC(=O)c1cccc(NC(=O)NC(C)c2c(-n3cccc3)sc3c2CCN(C)C3)c1` (stereo not drawn), the inhibition is -6.04%.

Consider `Cc1cc2c(cc3c(SCC(=O)Nc4ccc(Cl)cc4F)nncn32)o1`, for which the inhibition is -11.9%.

For `CN(C)c1nc2n(c(=O)n1)C(C#N)CS2` (stereo not drawn), the inhibition is active: 33.5%.

`Cc1c(C(=O)NCc2ccccc2CN2CCCC2)oc2ccc(F)cc12`: the inhibition is active: 58.4%.

With `COc1ccc(CNC(=O)c2ccc(NC(=O)N3CCSc4ncccc43)cc2)cc1`, the inhibition was determined as 5.75%.

On to `Cc1ccccc1C(=O)N1CCC(C(=O)Nc2ccc(F)cc2F)CC1`, for which the inhibition is -1.25%.

On to `Cc1cccc(S(=O)(=O)c2cn(C)c3cc(N4CCN(c5ccccc5)CC4)c(F)cc3c2=O)c1`, for which the inhibition was -14.2%.

Consider `Cc1ccc(Cn2c(C)c3cnn(CC(=O)NCCc4ccc(Cl)cc4)c(=O)c3c2C)cc1`, for which the inhibition was -5.81%.

Turning to `COc1ccc(/C=N/N2C(=O)CSC2=S)cc1Br`, the inhibition was active: 33.3%.

Turning to `CCN1CCN(c2ccc(S(=O)(=O)N3CCOCC3)cc2NC(=O)CCOc2ccccc2)CC1`, the inhibition is active: 31.8%.

Consider `COc1cccc(CCNC(=O)c2cnc3sc(N4CCOCC4)nn3c2=O)c1`, for which the inhibition is -6.98%.

`COc1ccc(C(C(=O)NC(C)(C)C)N(CCc2ccc(OC)c(OC)c2)C(=O)CCC(=O)Nc2cc(C)on2)cc1` (stereo not drawn): the inhibition was active: 34.5%.

In the case of `CCOc1ccc(C(=O)Nc2ccc(-n3nncc3-c3ccc(OC)cc3)cc2)cc1`, the inhibition was -7.6%.

`COc1ccccc1NC(=O)C1=C(C)Nc2nc(-c3ccco3)nn2C1c1ccccc1F` (stereo not drawn): the inhibition was found to be 22.6%.

As to `CN(C)S(=O)(=O)c1ccc(N2CCCC2)c(C(=O)NNC(=O)COc2ccccc2F)c1`, the inhibition is active: 57%.

As for `Cn1nnnc1SCCNCc1ccc(Cl)c(Cl)c1`, the inhibition is -4.93%.

With `S=C(Nc1cccc(Cl)c1Cl)NC1CCN(Cc2ccccc2)CC1`, the inhibition is active: 71.1%.

For `CCCc1cc(=O)[nH]c(Nc2ccc(OCC)cc2)n1`, the inhibition is 1.23%.

`O=C(CSc1nc(-c2ccccc2)nc2cc(=O)[nH]n12)Nc1ccccc1`: the inhibition was found to be 7.96%.

In the case of `CCc1nc(-c2ccc(C)c(S(=O)(=O)N3CCN(c4ccc(C(C)=O)cc4)CC3)c2)no1`, the inhibition was -7.17%.

For `Cc1ccccc1C(=O)N1c2ncnn2C2(CCCCC2)[C@@H]2CCCC[C@@H]21`, the inhibition was 12.5%.

With `CC(C)Nc1nc2c(-c3cccc(Br)c3)nnn2c2ccccc12`, the inhibition was 4.2%.

As for `COC(=O)C1=C(C)N(C(C)C)C(=O)C1(NC(=O)c1ccc(C(C)(C)C)cc1)C(F)(F)F` (stereo not drawn), the inhibition is -6.33%.

`Cc1ccccc1Cn1c(=O)n(CCC(=O)NCc2ccco2)c(=O)c2sccc21`: the inhibition was found to be 4.21%.

On to `O=C(NCCn1cc(SCc2ccc(F)cc2)c2ccccc21)c1cccs1`, for which the inhibition was -11%.

For the compound `CCc1ccc(NC(=O)Cn2cc(S(=O)(=O)c3ccc(F)cc3)c(=O)c3cc(OC)ccc32)cc1`, the inhibition was -13.9%.

As for `COc1ccc(NC(=O)C2CCC(CNS(=O)(=O)c3ccc(Br)s3)CC2)c(OC)c1` (stereo not drawn), the inhibition was -0.604%.

As to `COc1cc(NC(=O)N2CCC(CN3CCCCCC3)CC2)cc(OC)c1OC`, the inhibition was determined as 6.57%.

Consider `CCCOc1ccc(CNC(=O)c2ccc3c(c2)N(CC)CCS3)cc1`, for which the inhibition is active: 50.2%.

Regarding `COc1cc(CNCCSc2nnnn2C)ccc1OCc1ccc(Cl)cc1Cl`, the inhibition is -2.54%.

Take `Cc1ccc(NC(=O)Cn2nc3c(cc2=O)CCCC3)cc1Cl`: the inhibition is -12.4%.

For the compound `CCN(C(=O)CSc1nc2ccccc2nc1Cc1ccc(F)cc1)c1cccc(C)c1`, the inhibition stood at 10.1%.

Regarding `CC(Oc1ccc(F)cc1)C(=O)Nc1cc(S(=O)(=O)N2CCCCC2)ccc1N1CCOCC1` (stereo not drawn), the inhibition was active: 37.3%.

For the compound `Cc1nc(-n2nc(C)c(CCC(C)C)c2C)sc1C(=O)Nc1cccc(Cl)c1`, the inhibition is -16.4%.

Take `CC(C)CN(C(=O)Cn1nnc(-c2ccc(F)cc2)n1)C1CCS(=O)(=O)C1` (stereo not drawn): the inhibition is active: 55.3%.

For the compound `Cc1cccc(C)c1NC(=O)c1sc(-n2nc(C)c(Cc3ccc4c(c3)OCO4)c2C)nc1C`, the inhibition was determined as 9.91%.

With `Clc1ccc(NCc2nc3ccccc3n2CCOc2ccccc2)cc1`, the inhibition was 3.4%.

`c1cnc2c(C3NCCc4c3[nH]c3ccccc43)cccc2c1` (stereo not drawn): the inhibition was active: 35.8%.

In the case of `CC(C)c1ccccc1NC(=S)N1CCN(Cc2ccc3c(c2)OCO3)CC1`, the inhibition was active: 33.4%.

Turning to `COc1cccc(NC(=O)Cn2nc(C)c3c(C)n(-c4ccccc4)nc3c2=O)c1`, the inhibition came to 10.5%.

Take `CCC(Sc1nnc(-c2ccc(OC)c(OC)c2)c(-c2ccc(OC)c(OC)c2)n1)C(=O)NC1CCCC1` (stereo not drawn): the inhibition stood at 14.4%.

For the compound `Cc1cccn2c(=O)cc(CSc3nnc(NC(=O)c4ccc(F)cc4)s3)nc12`, the inhibition turned out to be 12.1%.

Consider `CCc1ccc(NC(=O)C(Cc2ccccc2)NS(=O)(=O)c2ccc3c(c2)c(=O)n(C)c(=O)n3C)cc1` (stereo not drawn), for which the inhibition stood at 9.65%.

Turning to `CCn1c(SCC(=O)Nc2ccc3c(c2)c2ccccc2n3CC)nnc1-c1ccco1`, the inhibition was active: 45.5%.

Regarding `CCCOc1ccc(Oc2nc(NCC(C)C)nc(N(C)C)n2)nn1`, the inhibition was found to be 12%.

With `CNC(=O)c1cnc2sc(N3CCCCCC3)nn2c1=O`, the inhibition amounted to 12.8%.

With `Cc1ccc(NC(=O)CSc2nnc(-c3cnccn3)n2Cc2ccco2)cc1`, the inhibition is active: 32%.

As to `CCOc1ccc(N(CC)C(=O)CCc2nc(-c3ccccc3F)no2)cc1`, the inhibition is 11.3%.

As for `O=C(Cc1ccccc1)N/N=C/c1ccccc1Cl`, the inhibition was active: 31.2%.

With `Fc1ccc(NC(=S)NCCc2ccc(Cl)cc2)cc1`, the inhibition is active: 31.7%.

Take `CN(C)CCCN1C(=O)CSC1c1ccc([N+](=O)[O-])cc1` (stereo not drawn): the inhibition is active: 34%.

As for `O=C(CCCn1c(=O)c2cccn2c2ccccc21)NCc1ccccc1Br`, the inhibition is -14%.

For the compound `Cc1ccc(Nc2sc(C(=O)c3ccccc3)c(N)c2C(N)=O)cc1`, the inhibition was -4.33%.

Consider `CC1CCN(C(=O)C2COc3ccccc3C2)CC1` (stereo not drawn), for which the inhibition is 8.82%.

Regarding `CCc1ccccc1NC(=O)Cn1c(SCc2ccc(F)cc2)nc2ccncc21`, the inhibition was 3.53%.

For `CCOc1ccccc1NC(=O)C1=C(C)Nc2ncnn2C1c1ccc(C)o1` (stereo not drawn), the inhibition is -20.3%.

On to `COc1ccc(-c2nc(CCNC(=O)c3ccc(Br)o3)cs2)cc1`, for which the inhibition is -4.58%.

Take `O=[N+]([O-])c1cc(-c2nc(-c3ccccc3)no2)ccc1N1CCOCC1`: the inhibition turned out to be 9.19%.

In the case of `Cc1cccc(NC(=O)c2oc3ccccc3c2NC(=O)Cc2coc3ccc(C(C)C)cc23)c1`, the inhibition was determined as 9.88%.

With `CCc1cccc(CC)c1NC(=O)CCS(=O)(=O)c1ccc2c(c1)CCN2C(C)=O`, the inhibition amounted to 12.7%.

Take `COc1ccc(-c2nc(CNS(=O)(=O)c3cccc(F)c3)cs2)cc1`: the inhibition is -2.53%.

For the compound `O=C(Cn1cnc2onc(-c3ccc(Cl)cc3)c2c1=O)Nc1ccc(F)cc1`, the inhibition is -25.5%.

Regarding `COCCNC(=O)CN1C(=O)c2cccnc2Oc2ccc(Cl)cc21`, the inhibition is -4.44%.

As for `Cc1ccc(S(=O)(=O)N(CCc2ccccc2)CC(=O)Nc2ccc(Br)cc2)cc1`, the inhibition was -0.625%.

With `CCOC(=O)c1ccc(N2C(=O)c3n[nH]c(-c4ccco4)c3C2c2cccc(O)c2)cc1` (stereo not drawn), the inhibition is 15.2%.

Take `CCOc1ccc(NC(=O)N2CCN3CCCCC3C2)cc1` (stereo not drawn): the inhibition was found to be 9.57%.

In the case of `COc1ccc(S(=O)(=O)NCc2nc3nc(C)cc(C)n3n2)cc1OC`, the inhibition was determined as 4.62%.

On to `COc1ccc(Nc2c3c(nc4nncn24)CCC3)cc1OC`, for which the inhibition was -15%.

As for `CCN(CC)CCOC(=O)c1ccc(NC(=O)CCCN2C(=O)/C(=C\c3cccs3)SC2=S)cc1`, the inhibition was active: 67.7%.

A word on the inhibition: it is the drop in the measured response relative to a control, in per cent.
